{"source": "patent US20110160055A1", "about": "“Imidazole and Triazole Compounds as Fungicides” (BASF SE, priority 2008, published 2011)", "tested_on": "Pyricularia oryzae", "assay_type": "cell-based", "settings": "31 ppm, absorption at 405 nm on day 7, control = 100%"}
{"molecule": "CC(COc1cccc(Cl)c1)=C(C)CC(C(O)C(C)(C)C)n1cncn1", "note": "(stereo not shown) [I.A4a]", "values": [{"measurement": "relative growth in % of the pathogen", "result": 9, "unit": "%"}]}
